# Assay results reported in PubChem BioAssay AID1768 (National Center for Advancing Translational Sciences (NCATS), 2009).
# In all, about 270,000 compounds went through this assay and about 620 (0.23%) were called active. The shares of active, inactive and inconclusive entries below differ from those in the screen. Calls come from the whole dose curve; as a rule, active = well fitted inhibition curve with a large enough effect in the polarisation, with a control signal flat (not every such curve was filed as active); inconclusive = small, poorly fitted or top-dose-only effect, or effect the other way, or a change in a side signal; inactive = no such curve, though single readings can be large or run the other way; the % refers to the polarisation. A potency beside an inconclusive call is a rough fit, not a confirmed value. A note “side channel” means that the fit belongs to a control or component signal, not to the main read-out.
# Molecular target: Menin (Homo sapiens) (UniProt O00255)
# Chain of UniProt O00255 (O00255 whole entry, looked up): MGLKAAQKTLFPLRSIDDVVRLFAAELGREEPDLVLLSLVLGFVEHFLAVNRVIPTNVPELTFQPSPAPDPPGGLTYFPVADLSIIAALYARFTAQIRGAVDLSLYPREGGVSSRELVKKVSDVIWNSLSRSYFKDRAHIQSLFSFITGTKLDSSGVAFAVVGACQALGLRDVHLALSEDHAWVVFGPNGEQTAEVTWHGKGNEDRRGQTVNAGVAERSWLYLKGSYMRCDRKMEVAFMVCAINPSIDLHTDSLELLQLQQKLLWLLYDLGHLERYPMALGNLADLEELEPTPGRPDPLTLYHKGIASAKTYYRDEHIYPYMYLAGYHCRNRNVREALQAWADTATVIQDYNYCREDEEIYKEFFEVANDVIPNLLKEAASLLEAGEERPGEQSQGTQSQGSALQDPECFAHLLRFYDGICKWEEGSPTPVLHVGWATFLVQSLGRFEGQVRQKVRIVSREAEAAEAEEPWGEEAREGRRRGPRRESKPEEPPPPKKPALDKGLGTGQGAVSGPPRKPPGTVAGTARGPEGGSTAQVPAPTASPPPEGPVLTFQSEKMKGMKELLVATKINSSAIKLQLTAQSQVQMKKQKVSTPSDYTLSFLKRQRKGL
# Assay: qHTS Assay for Inhibitors Targeting the Menin-MLL Interaction in MLL Related Leukemias: Competition With Texas Red Labeled MLL-derived Mutant Peptide; for FP activity change, negative = inhibition: % of control where 0% means no effect
# Conditions: fluorescence polarization; FP activity change, negative = inhibition: at 61.6 µM (top of the series)
# Potency is the fitted concentration of half-maximal effect; tags give direction and shape of the fitted curve or compound fluorescence and quenching.
SMILES,Potency,"FP activity change, negative = inhibition"
Cc1ccc(OCC(=O)Nc2cccc(S(=O)(=O)N3CCCCCC3)c2)c([N+](=O)[O-])n1,"inconclusive: 15.8 µM [quencher, side channel, partial curve]",–
COC(=O)COc1ccc(/C=N/NC(=O)c2ccc(N(Cc3ccccc3)S(C)(=O)=O)cc2)cc1,–,inactive: 12.1%
O=C(NC1CCc2ccccc21)c1cc(COc2ccc(F)cc2Cl)on1 (stereo not given),"inconclusive: 20 µM [fluorescent, side channel, partial curve]",–
COc1ccc(CCN2C(=O)CC(NNc3ccc([N+](=O)[O-])cc3)C2=O)cc1OC (stereo not given),"inconclusive: 28.2 µM [quencher, single point]",–
N=C1S/C(=C\c2ccc(-c3ccccc3C(=O)O)o2)C(=O)N1c1ccc2c(c1)OCO2,"inconclusive: 31.6 µM [quencher, side channel, single point]",–
CCN(CC)S(=O)(=O)c1ccc2c(c1)c(=O)c(C(=O)NCCCN(C)c1ccccc1)cn2C,"inconclusive: 25.1 µM [quencher, side channel, single point]",–
Brc1ccc(CNc2cc3c(cc2Br)OCCO3)cc1,"inconclusive: 14.1 µM [quencher, side channel, partial curve]",–
COCCCNC(=O)CSC1=Nc2ccccc2C2=NC(CC(=O)NCc3ccccc3)C(=O)N12 (stereo not given),"inconclusive: 7.08 µM [inhibitor, single point]",–
COCC(C)n1c(SCC(=O)NCCC2=CCCCC2)nc2ccccc2c1=O (stereo not given),"inconclusive: 17.8 µM [fluorescent, side channel, partial curve]",–
O=C(C1CC1c1ccccc1)N1CCN(c2cccc(Cl)c2)CC1 (stereo not given),"inconclusive: 39.8 µM [fluorescent, side channel, single point]",–
CCN(CC)C(=O)CCn1nc(-c2ccc(C)cc2)c2ccccc2c1=O,"inconclusive: 10 µM [fluorescent, side channel, partial curve]",–
O=C(Nc1ccc(CN2CCOCC2)cc1)c1cccc(-c2cc3ccccc3oc2=O)c1,"inconclusive: 8.91 µM [inhibitor, partial curve]",–
CCO[C@H]1OC(C(=O)N2CCN(Cc3ccccc3)CC2)=C[C@@H](c2ccc(C(F)(F)F)cc2)[C@@H]1CCCO,"inconclusive: 3.98 µM [fluorescent, side channel, partial curve]",–
CCc1ccc(NC(=O)NNC(=O)c2cc3ccccc3cc2O)cc1,"inconclusive: 12.6 µM [quencher, side channel, partial curve]",–
CCCCc1ccc(-c2csc(/C(C#N)=C/c3ccc(C)o3)n2)cc1,"inconclusive: 31.6 µM [quencher, side channel, single point]",–
COc1ccc(S(=O)(=O)N(C)c2ccc(OCC(=O)Nc3cc(C)on3)cc2)cc1,"inconclusive: 39.8 µM [quencher, side channel, single point]",–
O=C(CSc1nnc(-c2ccccc2F)n1C1CC1)Nc1cccnc1Cl,"inconclusive: 39.8 µM [inhibitor, single point]",–
O=C(O)c1ccc(Cl)c2c1C1C=CCC1C(c1ccccn1)N2 (stereo not given),"inconclusive: 25.1 µM [inhibitor, partial curve]",–
Nc1ccccc1SCc1ccccc1,–,inactive: 29.9%
O=C(Cc1ccc([N+](=O)[O-])cc1)N/N=C/c1ccc([N+](=O)[O-])o1,"inconclusive: 39.8 µM [quencher, single point]",–

SMILES,Potency,"FP activity change, negative = inhibition"
O=C(O)C1Cc2c([nH]c3ccccc23)C(c2coc3ccccc3c2=O)N1 (stereo not given),–,inactive: 19.8%
Fc1ccc(F)c(C2=NNC(=Nc3ccccc3F)SC2)c1,"inconclusive: 35.5 µM [quencher, side channel, single point]",–
CCC(=O)c1c(O)cc(O)cc1O,"inconclusive: 39.8 µM [quencher, single point]",–
Cc1cc(OC(=O)c2ccc(S(=O)(=O)N(C)C)cc2)c([N+](=O)[O-])c(=O)[nH]1,–,inactive: -8.14%
COc1ccc(Br)cc1CN(C)CC(O)COc1ccc(Br)cc1 (stereo not given),–,inactive: -11.4%
Cc1nc2c(sc(=S)n2Cc2ccco2)c(=O)n1CC(=O)Nc1ccccc1F,"inconclusive: 4.47 µM [quencher, side channel, full curve, poor fit]",–
N=C1/C(=C/c2ccc(-c3cccc(C(=O)O)c3)o2)C(=O)N=C2SC=C(c3ccccc3)N12,"inconclusive: 25.1 µM [quencher, side channel, partial curve]",–
S=C(NCc1cccnc1)Nc1ccc(Cl)c(Cl)c1,"inconclusive: 8.91 µM [quencher, side channel, partial curve]",–
O=[N+]([O-])c1ccc(O)c(/C=N/Nc2nc3ccccc3[nH]2)c1,"inconclusive: 22.4 µM [quencher, side channel, partial curve]",–
Cc1cc(C)c(S(=O)(=O)c2c(C)cccc2C)c(Cl)n1,–,inactive: 8.84%
CC(C)(C)NC(=O)CCn1nc(-c2ccc(Cl)cc2)c2ccccc2c1=O,"inconclusive: 25.1 µM [inhibitor, partial curve, poor fit]",–
CCOC(=O)CN1C(=O)S/C(=C\c2ccc(-c3ccc(C(=O)O)c(Cl)c3)o2)C1=O,"inconclusive: 35.5 µM [quencher, side channel, single point]",–
CCC(CC)C(=O)Nc1nnc(-c2cccs2)s1,–,inactive: 9.56%
COc1ccc(CCN/C=C2/CC(=O)NC2=O)cc1OC,"inconclusive: 20 µM [inhibitor, partial curve]",–
O=C(c1ccc(Cl)c([N+](=O)[O-])c1)N1CCCc2ccccc21,"inconclusive: 11.2 µM [inhibitor, partial curve, poor fit]",–
COc1ccc(N2CCN(C(=O)c3cccc(N4C(=O)C5C6C=CC(C6)C5C4=O)c3)CC2)cc1 (stereo not given),"inconclusive: 39.8 µM [inhibitor, partial curve]",–
COC(=O)c1c(NC(=O)Cn2nc(C(F)F)cc2C(F)F)sc(C)c1C,–,inactive: 27%
C/C(=N\Nc1cccc(Cl)c1)c1ccncc1,"inconclusive: 31.6 µM [quencher, side channel, single point]",–
N#CCCn1c(C2CCCCC2)nc2ccccc21,–,inactive: -16.6%
CC1CCC(C(C)C)C(OCC(O)C[N+]2(C)CCCCC2)C1 (stereo not given),–,inactive: -2.64%

SMILES,Potency,"FP activity change, negative = inhibition"
CC(C)C(=O)Nc1ccc(-c2nc3cccnc3o2)cc1,–,inactive: -25.6%
O=[N+]([O-])c1ccc(O)c(-c2nn[nH]n2)c1,"inconclusive: 39.8 µM [quencher, side channel, single point]",–
COc1ccc(/C=C/C(=O)NC(=S)Nc2cc([N+](=O)[O-])ccc2O)cc1OC,"inconclusive: 11.2 µM [quencher, side channel, partial curve]",–
COc1cc(Cl)cc2c1Sc1ccccc1/C2=C/CCN(C)C,"inconclusive: 1.78 µM [fluorescent, side channel, full curve]",–
CCOc1ccc(-n2c(=S)sc3c(=O)[nH]c(SCC(=O)C(C)(C)C)nc32)cc1,"inconclusive: 7.08 µM [quencher, side channel, partial curve]",–
CN(C)S(=O)(=O)c1cccc(NC(=O)C2Cc3ccccc3CN2C(=O)c2ccco2)c1 (stereo not given),"inconclusive: 35.5 µM [quencher, side channel, single point]",–
O=C(O)c1cc(NN=C2c3ccccc3-c3ccccc32)ccc1Cl,"inconclusive: 14.1 µM [quencher, side channel, partial curve]",–
CCOC(=O)c1ccc(S(=O)(=O)N2CCN(CC3CC=CCC3)CC2)cc1 (stereo not given),"inconclusive: 6.31 µM [fluorescent, side channel, full curve]",–
COc1cccc(C(=O)NC(=S)Nc2ccccc2N2CCCC2)c1,"inconclusive: 25.1 µM [quencher, side channel, single point]",–
Nc1cccc(P(=O)(c2ccccc2)c2ccccc2)c1,–,inactive: -23.3%
CCNc1ncc2nc(C)c(=O)n(CCOC)c2n1,–,inactive: 5.54%
CC(=O)c1c(C)n(-c2ccc(N(C)C)cc2)c2ccc(OCC(N)=O)cc12,"inconclusive: 12.6 µM [fluorescent, side channel, partial curve]",–
CCOC(=O)Cc1cc(=O)n2[nH]c(-c3ccccc3)cc2n1,–,inactive: -5.24%
O=C(Nc1ccc(C2CC2(Cl)Cl)cc1)c1cccc([N+](=O)[O-])c1 (stereo not given),"inconclusive: 28.2 µM [quencher, side channel, partial curve]",–
O=S(=O)(c1ccc(S(=O)(=O)N2CCN(C3CCCCC3)CC2)cc1)N1CCCCCC1,–,inactive: 1.03%
COc1ccccc1C1CC(=O)Oc2cc3c(cc21)OCO3 (stereo not given),"inconclusive: 39.8 µM [quencher, partial curve]",–
O=C(COC(=O)c1ccccc1Nc1ccccc1)Nc1ccccc1,"inconclusive: 12.6 µM [quencher, side channel, partial curve]",–
Cc1cc([N+](=O)[O-])ccc1NCc1cccc([N+](=O)[O-])c1,"inconclusive: 22.4 µM [quencher, side channel, single point]",–
O=C(OC1Cc2c(O)cc(O)cc2OC1c1cc(O)c(O)c(O)c1-c1c(C2Oc3cc(O)cc(O)c3CC2O)cc(O)c(O)c1O)c1cc(O)c(O)c(O)c1 (stereo not given),"inconclusive: 22.4 µM [quencher, side channel, partial curve]",–
O=C(Nc1ncc(S(=O)(=O)c2ccc([N+](=O)[O-])cc2)s1)c1ccc2ccccc2c1,"inconclusive: 12.6 µM [quencher, side channel, partial curve]",–
